{"source": "PubChem BioAssay AID2675", "about": "(National Center for Advancing Translational Sciences (NCATS), 2010)", "note": "Values joined by “and” are separate entries in the source; they are usually repeats but may differ in a detail not shown here. Equal values may be shown once. Screen size: about 280,000 compounds; about 100 (0.036%) were called active. Inconclusive results, whose numbers are uncertain, are shown with a selection of clear calls. Calls come from the whole dose curve; as a rule, active = well fitted inhibition curve with a large enough effect in the signal ratio, with a control signal flat (not every such curve was filed as active); inconclusive = small, poorly fitted or top-dose-only effect, or effect the other way, or a change in a side signal; inactive = no such curve, though single readings can be large or run the other way; the % refers to the signal ratio. Potencies beside an inconclusive call are fits to weak or partial responses and may not hold up. A note “side channel” means that the fit belongs to a control or component signal, not to the main read-out. Potency is the fitted concentration of half-maximal effect; tags give direction and shape of the fitted curve or compound fluorescence and quenching.", "data": [{"molecular_target": "Muscleblind-like protein 1 (Homo sapiens) (UniProt Q9NR56)", "sequence (Q9NR56 whole entry, looked up)": "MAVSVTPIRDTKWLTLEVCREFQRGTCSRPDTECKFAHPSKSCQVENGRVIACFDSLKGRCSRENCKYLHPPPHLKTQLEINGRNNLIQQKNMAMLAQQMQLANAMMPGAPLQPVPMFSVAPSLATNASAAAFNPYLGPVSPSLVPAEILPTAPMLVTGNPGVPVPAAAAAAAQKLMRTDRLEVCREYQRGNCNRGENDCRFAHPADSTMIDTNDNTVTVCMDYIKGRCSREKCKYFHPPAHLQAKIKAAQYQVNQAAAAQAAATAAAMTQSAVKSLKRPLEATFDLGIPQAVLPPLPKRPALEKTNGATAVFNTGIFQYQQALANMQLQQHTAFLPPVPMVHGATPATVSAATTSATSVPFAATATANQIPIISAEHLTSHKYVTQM", "test": "qHTS Assay for Inhibitors of MBNL1-poly(CUG) RNA binding", "conditions": "TR-FRET MBNL1-His/biotin-(CUG)12 binding, 665/545 ratio; series mostly up to 57.5 µM", "summary_of_the_method": "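Compounds (final 92 nM to 58 uM) are added to His-tagged MBNL1 and biotin-(CUG)12, then terbium anti-His antibody and streptavidin-XL665 (5 nM final). After 60 min at room temperature, the 665/545 nm ratio is read.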", "values": [{"smiles": "COc1ccc(C2=NN(c3nc(-c4ccccc4)c(CC(=O)O)s3)C(c3ccco3)C2)cc1", "note": "(stereo unspecified)", "Potency": "inconclusive: 39.8 µM [fluorescent, side channel, single point]"}, {"smiles": "COc1ccc(C(=O)N2CCC(C(=O)Nc3ccccc3OC)CC2)cc1", "Potency": "inconclusive: 8.91 µM [quencher, side channel, single point]"}, {"smiles": "Cc1onc(-c2c(Cl)cccc2Cl)c1C(=O)NCC1CCCO1", "note": "(stereo unspecified)", "Potency": "inactive"}, {"smiles": "CN1c2ccccc2C(=O)NC1c1ccc([N+](=O)[O-])s1", "note": "(stereo unspecified)", "Potency": "inconclusive: 11.2 µM [quencher, side channel, partial curve]"}, {"smiles": "CNC(=S)N1N=C(c2cccs2)CC1c1ccc(F)cc1", "note": "(stereo unspecified)", "Potency": "inconclusive: 25.1 µM [quencher, side channel, partial curve]"}, {"smiles": "O=C(CCCNS(=O)(=O)c1cccc2nsnc12)NCCN1CCN(c2ccccc2F)CC1", "Potency": "inconclusive: 25.1 µM [quencher, side channel, partial curve]"}, {"smiles": "O=C1c2ccccc2C(=O)N1CCc1c[nH]c2ccc(O)cc12", "Potency": "inconclusive: 25.1 µM [quencher, side channel, partial curve]"}, {"smiles": "COc1ccc(C(=O)C(CCCCC(CN(C)C)C(=O)c2ccc(OC)cc2)CN(C)C)cc1", "note": "(stereo unspecified)", "Potency": "inactive"}, {"smiles": "O=C(CCN1CCOCC1)c1ccccc1", "Potency": "inactive"}, {"smiles": "O=C(Cn1ccc([N+](=O)[O-])n1)N1CCCc2ccccc21", "Potency": "inconclusive: 28.2 µM [quencher, side channel, single point]"}, {"smiles": "C=CCNC(=O)c1ccc(CN2CCC(Cc3ccccc3)CC2)cc1", "Potency": "inconclusive: 126 µM [inhibitor, single point]"}, {"smiles": "Cc1ccc(C)n1-c1ccccc1N", "Potency": "inconclusive: 17.8 µM [quencher, side channel, partial curve, poor fit]"}, {"smiles": "COc1ccccc1Cc1nnc(NC(=O)C2CCN(C(=O)c3ccco3)CC2)s1", "Potency": "inactive"}, {"smiles": "C/C(=N\\NC(=O)c1ccoc1C)c1ccccc1O", "Potency": "inactive"}, {"smiles": "NC(=O)c1nsc(C(=O)N(CC(=O)NC2CCCC2)Cc2ccc3c(c2)OCO3)c1N", "Potency": "inconclusive: 31.6 µM [quencher, side channel, single point]"}, {"smiles": "O=C(N/N=C/c1ccc([N+](=O)[O-])cc1)c1c[nH]c2ccccc12", "Potency": "inconclusive: 3.55 µM [quencher, side channel, full curve]"}, {"smiles": "CCOC(=O)CN1N=C(/C=C/c2ccc(OCC)cc2)CCC1=O", "Potency": "inconclusive: 28.2 µM [quencher, single point]"}, {"smiles": "CCOC(=O)C1(CCCc2ccccc2)CCN(Cc2nccn2CC)CC1", "Potency": "inactive"}, {"smiles": "CCn1cc(C(=O)NCc2ccco2)c2cc(OC)c(OC)cc2c1=O", "Potency": "inconclusive: 39.8 µM [inhibitor, single point]"}, {"smiles": "Cc1ccc(C(=O)Nc2ccccc2[N+](=O)[O-])cc1S(=O)(=O)N1CCOCC1", "Potency": "inconclusive: 8.91 µM [quencher, partial curve]"}, {"smiles": "C[c-]1[c-](C)[c-](C)[c-](C)[c-]1C.[Fe].c1cc2nccc(N3CCCC3)[c-]2c1", "note": "(stereo unspecified)", "Potency": "inconclusive: 31.6 µM [quencher, side channel, single point] and inconclusive: 28.2 µM [quencher, side channel, single point]"}, {"smiles": "O=C(Cc1cccs1)NCc1ccc2c(c1)OCO2", "Potency": "inconclusive: 8.91 µM [fluorescent, side channel, single point]"}, {"smiles": "O=C(COc1ccc([N+](=O)[O-])cc1)Nc1cc(C(=O)O)cc(C(=O)O)c1", "Potency": "inconclusive: 22.4 µM [quencher, side channel, partial curve]"}, {"smiles": "N#Cc1c(NC(=O)c2ccccc2)sc2c1CCC2", "Potency": "inactive"}, {"smiles": "Cc1cccc(Cn2nnc3c2C(=O)c2ccccc2C3=O)c1", "Potency": "inconclusive: 25.1 µM [quencher, side channel, single point]"}, {"smiles": "CCN1CCCC1CN(Cc1cc2cc(C)cc(C)c2[nH]c1=O)C(=O)Nc1ccccc1OC", "note": "(stereo unspecified)", "Potency": "inactive"}, {"smiles": "CC(=O)O[C@H]1C2OC(=O)C(C)=C2[C@@H]2OC(=O)[C@]3(CCC4OC41C)OC23", "note": "(stereo partly specified)", "Potency": "inactive"}, {"smiles": "COc1ccc(-n2c(Cc3ccccc3)nnc2SCc2ccc([N+](=O)[O-])cc2)cc1", "Potency": "inconclusive: 28.2 µM [quencher, side channel, partial curve]"}, {"smiles": "CCn1ncc(/C=N\\NC(=O)Cc2ccc([N+](=O)[O-])cc2)c1C", "Potency": "inconclusive: 17.8 µM [quencher, side channel, partial curve]"}, {"smiles": "O=C(Nc1cc([N+](=O)[O-])ccc1O)c1ccc2c(c1)C(=O)N(Cc1ccco1)C2=O", "Potency": "inactive"}, {"smiles": "COc1ccc(S(=O)(=O)Nc2cccc(N(C)S(C)(=O)=O)c2)cc1C", "Potency": "inconclusive: 35.5 µM [fluorescent, side channel, partial curve]"}, {"smiles": "CCOC(=O)C1CCCN(C2=NC(=O)/C(=C/c3ccc(N(C)C)cc3)S2)C1", "note": "(stereo unspecified)", "Potency": "inconclusive: 14.1 µM [quencher, side channel, partial curve]"}, {"smiles": "Cc1nc(C)c(-c2csc(Nc3ccc(N)cc3)n2)s1", "Potency": "inconclusive: 15.8 µM [quencher, side channel, partial curve]"}, {"smiles": "CCc1nnc(NC(=O)CSc2ncc(-c3ccccc3)n2CC)s1", "Potency": "inactive"}, {"smiles": "O=C(O)C1CC=CCC1C(=O)Nc1cccc([N+](=O)[O-])c1", "note": "(stereo unspecified)", "Potency": "inconclusive: 28.2 µM [quencher, side channel, partial curve]"}, {"smiles": "O=C(COc1ncnc2ccccc12)Nc1cccc([N+](=O)[O-])c1", "Potency": "inconclusive: 25.1 µM [quencher, partial curve]"}, {"smiles": "Cn1cnc([N+](=O)[O-])c1Nc1ccccc1O", "Potency": "inconclusive: 20 µM [quencher, side channel, partial curve, poor fit]"}, {"smiles": "N/C(=N\\OC(=O)c1ccccc1Br)c1ccc([N+](=O)[O-])cc1", "Potency": "inconclusive: 14.1 µM [quencher, side channel, partial curve]"}, {"smiles": "c1ccc2nc3c(nc2c1)CCc1nonc1-3", "Potency": "inconclusive: 8.91 µM [quencher, side channel, full curve]"}, {"smiles": "CCCCC1(Cc2ccc([N+](=O)[O-])cc2)C(=O)N(c2ccccc2)N(c2ccccc2)C1=O", "Potency": "inconclusive: 8.91 µM [quencher, side channel, full curve]"}, {"smiles": "COc1cc(NC(=O)c2onc(C)c2Cl)c(OC)cc1Cl", "Potency": "inconclusive: 3.16 µM [fluorescent, side channel, partial curve]"}, {"smiles": "CC1Cc2cc(S(=O)(=O)CCC(=O)NC3CCCCC3)ccc2N1C(=O)C1CC1", "note": "(stereo unspecified)", "Potency": "inconclusive: 6.31 µM [fluorescent, side channel, single point]"}, {"smiles": "CCOc1cccc(/C=N/NC(=S)Nc2cc(S(=O)(=O)N3CCOCC3)ccc2N2CCOCC2)c1O", "Potency": "inactive"}, {"smiles": "COc1cc(-c2cc(=O)c3c(O)c(OC)c(OC)cc3o2)cc(OC)c1O", "Potency": "inconclusive: 17.8 µM [quencher, side channel, partial curve]"}, {"smiles": "O=[N+]([O-])c1cccc(OCc2cn3cccnc3n2)c1", "Potency": "inconclusive: 17.8 µM [quencher, side channel, partial curve]"}, {"smiles": "CCn1c(SCC(=O)N2CCc3ccccc32)nc2c(c1=O)SC(C)C2", "note": "(stereo unspecified)", "Potency": "inconclusive: 0.708 µM [quencher, side channel, single point]"}, {"smiles": "OC(c1cc(-c2ccc(C(F)(F)F)cc2)nc(C(F)(F)F)c1)C1CCCCN1", "note": "(stereo unspecified)", "Potency": "inactive"}, {"smiles": "Cn1cc([N+](=O)[O-])c(C(=O)NCc2cc3cc(Cl)ccc3[nH]2)n1", "Potency": "inconclusive: 17.8 µM [quencher, side channel, partial curve]"}, {"smiles": "O=C(O)C1CCN(c2c([N+](=O)[O-])cc(C(F)(F)F)cc2[N+](=O)[O-])CC1", "Potency": "inconclusive: 17.8 µM [quencher, side channel, single point]"}, {"smiles": "O=C(Nc1ccccc1)C(Cl)C(=O)c1ccccc1", "note": "(stereo unspecified)", "Potency": "inactive"}, {"smiles": "CC(C)OCCCn1c(=N)c(C(N)=S)cc2c(=O)n3ccccc3nc21", "Potency": "inconclusive: 12.6 µM [quencher, side channel, partial curve]"}, {"smiles": "Cc1cccc(NC(=O)c2nc[nH]c2C(=O)N[C@@H](Cc2ccccc2)C(=O)OCc2ccccc2)c1", "Potency": "inactive"}, {"smiles": "CCOC(=O)C1=C(C)N(C)C(=O)NC1c1cccc2ccccc12", "note": "(stereo unspecified)", "Potency": "inactive"}, {"smiles": "COC(=O)c1sc(NC(=O)c2ccco2)nc1C", "Potency": "inactive"}, {"smiles": "O=C(CCN1C(=O)S/C(=C/c2ccccc2)C1=O)Nc1ccc(C(=O)O)c(O)c1", "Potency": "inconclusive: 7.08 µM [quencher, side channel, partial curve]"}, {"smiles": "Cc1ccc(/C=N/NC(=O)c2nn(C)cc2Cl)cc1", "Potency": "inconclusive: 35.5 µM [quencher, side channel, single point]"}, {"smiles": "O=C(Nc1ccc2c(c1)OCCO2)C1CCN(S(=O)(=O)c2cccc3nsnc23)CC1", "Potency": "inconclusive: 2.82 µM [quencher, full curve, poor fit]"}, {"smiles": "CN1CCc2c(sc3c2C(=O)NC(c2ccc(-c4ccc(Cl)cc4)o2)N3)C1", "note": "(stereo unspecified)", "Potency": "inconclusive: 11.2 µM [quencher, side channel, partial curve]"}, {"smiles": "Clc1ccc(SCNc2ccccc2Cl)cc1", "Potency": "inactive"}, {"smiles": "COc1cc(/C=N/NC(=O)c2cccc(NC(=O)c3ccccc3Cl)c2)ccc1O", "Potency": "inconclusive: 28.2 µM [quencher, side channel, partial curve]"}, {"smiles": "O=C1NC(=O)/C(=C\\c2ccc(OCc3cccc(C(=O)O)c3)c(Cl)c2)N1", "Potency": "inconclusive: 22.4 µM [quencher, side channel, partial curve]"}]}]}
